Assay in all cases: Primary Screen for Target Class Profiling of Small Molecule Inhibitors of Methyltransferases
Assay [1] deals with Glycine N-methyltransferase (Homo sapiens) (UniProt Q14749). The settings on record: purified enzyme, MTase-Glo SAH luminescence; measured here: GNMT inhibition; at 40 µM; stronger effect = lower value. The gist of the method:
(§1)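 Each enzyme was reacted with SAM and its substrate, with compounds tested once at 40 uM; SAH formed was read by MTase-Glo luminescence.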

Assay [2] concerns the target Guanidinoacetate N-methyltransferase (Homo sapiens) (UniProt Q14353). Conditions: purified enzyme, MTase-Glo SAH luminescence; measured here: GAMT inhibition; at 40 µM; stronger effect = lower value. The gist of the method:
as §1

Assay [3] addresses Histamine N-methyltransferase (Homo sapiens) (UniProt P50135). The settings on record: purified enzyme, MTase-Glo SAH luminescence; measured here: HNMT inhibition; at 40 µM; stronger effect = lower value. The gist of the method:
as §1

Assay [4] has as its target Nicotinamide N-methyltransferase (Homo sapiens) (UniProt P40261). Conditions: purified enzyme, MTase-Glo SAH luminescence; measured here: NNMT inhibition; at 40 µM; stronger effect = lower value. The gist of the method:
as §1

The target of assay [5] is Phenylethanolamine N-methyltransferase (Homo sapiens) (UniProt P11086). The settings on record: purified enzyme, MTase-Glo SAH luminescence; measured here: PNMT inhibition; at 40 µM; stronger effect = lower value. The gist of the method:
as §1

The results in this text go back to PubChem BioAssay AID1745853 (National Center for Advancing Translational Sciences (NCATS), 2022).

Values joined by “and” are separate entries in the source; they are usually repeats but may differ in a detail not shown here. Identical values can stand only once. The list shows a part of the results. Further columns of the screen follow, without active or inactive calls.
% is set by controls: 0 for no effect and ±100 for the full control effect.

For `CN(CCN1C(=O)c2cc3sccc3n2CC1(C)C(=O)NC1CCCCC1)C1CCCCC1` (stereo not drawn), the activity change, negative = inhibition in assay [1] amounted to 5.83%; in assay [2] it was 1.5%; in assay [3], 5.48%; in assay [4], 11.2%; in assay [5], 2%.

In the case of `CCCn1c(=O)c2ccc(C(=O)NC3CCCC3)cc2n2c(=O)n(Cc3ccccc3C)nc12`, the activity change, negative = inhibition in assay [1] is 2.77%; in assay [2] it was 1.11%; in assay [3], 14.4%; in assay [4], -2.72%; in assay [5] it was -5.87%.

As to `C[N+](C)(C)CCCCCC[N+](C)(C)C`, the activity change, negative = inhibition in assay [1] is -0.858% and -2.52%; in assay [2], 5.07% and 1.25%; in assay [3] it was 2.17% and -0.227%; in assay [4] it was -7.23% and -8.06%; in assay [5] it was 0.919% and -1%.

With `CC1=CCC2C(C)(CO)CCCC2(C)C1CC12OC1C(O)C(CO)=CC2O` (stereo not drawn), the activity change, negative = inhibition was 0% in assay [1]; -2.74% in assay [2]; -6.4% in assay [3]; -12.6% in assay [4]; -0.091% in assay [5].

For `O=c1ccc2ccc(OCCCCN3CCN(c4cccc5sccc45)CC3)cc2[nH]1`, the activity change, negative = inhibition in assay [1] was -5.38%; in assay [2], -1.58%; in assay [3] it was -4.97%; in assay [4], -48.7%; in assay [5] it was -15.5%.

On to `CCC1=C(C)C(=O)C(C)CC12C(=O)CCC2C(=O)O` (stereo not drawn), for which the activity change, negative = inhibition is -0.095% in assay [1]; -2.63% in assay [2]; 0.856% in assay [3]; -14.6% in assay [4]; 3.18% in assay [5].

Turning to `CC1(C(=O)NCc2ccccc2)Cn2c(cc3ccccc32)C(=O)N1Cc1ccccc1` (stereo not drawn), the activity change, negative = inhibition in assay [1] was 1.76%; in assay [2] it was 2.28%; in assay [3] it was 3.13%; in assay [4], -2.92%; in assay [5] it was 0.419%.

In the case of `CNC(=O)c1cc(C2CC2)nc2onc(C3CCCN3C(=O)NC(C)c3ccccc3)c12` (stereo not drawn), the activity change, negative = inhibition in assay [1] was -4.43%; in assay [2], 1.43%; in assay [3], -1.57%; in assay [4], -2.22%; in assay [5], -2.65%.

Consider `COc1ccccc1Oc1ccc(N(Cc2cccnc2)S(=O)(=O)CC(F)(F)F)cc1`, for which the activity change, negative = inhibition in assay [1] is -0.265%; in assay [2], 3.86%; in assay [3], 6.9%; in assay [4] it was -22.3%; in assay [5], -6.8%.

Consider `COCCN1C(=O)N(C)C(=O)C12CCN(CCCOc1ccc(F)cc1)C2` (stereo not drawn), for which the activity change, negative = inhibition was -3.66% in assay [1]; -5.56% in assay [2]; -0.829% in assay [3]; -7.4% in assay [4]; 13% in assay [5].

With `Cc1ccc(N2C(=O)c3cc4ccccc4n3CC2(C)C(=O)NC2CCCC2)cc1Cl` (stereo not drawn), the activity change, negative = inhibition in assay [1] was 2.11%; in assay [2], 0%; in assay [3] it was 1.5%; in assay [4] it was 3.37%; in assay [5], 0.502%.

Turning to `CCOc1cc(CNC(=O)c2cc3n(n2)CC(C)(C(=O)NCc2ccc(F)cc2)N(C)C3=O)ccc1OC` (stereo not drawn), the activity change, negative = inhibition is 1.99% in assay [1]; 4.42% in assay [2]; -7.51% in assay [3]; 6.21% in assay [4]; 4.51% in assay [5].

For `N[C@@H](CCC(=O)N[C@H](CSN=O)C(=O)NCC(=O)O)C(=O)O`, the activity change, negative = inhibition in assay [1] is 0.772%; in assay [2], 12.7%; in assay [3] it was 9.72%; in assay [4] it was -1.18%; in assay [5] it was 5.71%.

For the compound `O=c1[nH]ccc2c(S(=O)(=O)N3CCCNCC3)cccc12`, the activity change, negative = inhibition in assay [2] was 2.67%; in assay [4], -6.15%; in assay [5], 2.89%.

With `Cn1cc(-c2ccc3ncc(Cc4ccc5ncccc5c4)n3n2)cn1`, the activity change, negative = inhibition in assay [1] is -25%; in assay [2] it was -9.43%; in assay [3], -21%; in assay [4] it was -28.1%; in assay [5] it was -19.8%.

In the case of `CCOc1ccc(CN2C(=O)c3cc4occc4n3CC2(C)C(=O)NC2CCCCCC2)cc1` (stereo not drawn), the activity change, negative = inhibition in assay [1] is -5.59%; in assay [2] it was 0.571%; in assay [3] it was -2.73%; in assay [4] it was -4.53%; in assay [5] it was -4.79%.

As to `O=C(CCn1ccc2cc(S(=O)(=O)N3CCCCC3)ccc21)NC1CCCCC1`, the activity change, negative = inhibition in assay [1] is 3.81%; in assay [2], 0%; in assay [3], -1.62%; in assay [4], 2.55%; in assay [5], 1.45%.

Turning to `Cc1ccc(Cn2c(=O)c3ccccc3n3c(SCC(=O)NCc4ccccc4)nnc23)cc1`, the activity change, negative = inhibition is -3.09% in assay [1]; 1.06% in assay [2]; 3.82% in assay [3]; -9.52% in assay [4]; -1.4% in assay [5].

On to `COC(=O)c1cc2n(n1)CC(C)(C(=O)NC1CCCC1)N(c1cc(Cl)ccc1C)C2=O` (stereo not drawn), for which the activity change, negative = inhibition in assay [1] was 5.06%; in assay [2], 0%; in assay [3], -4.85%; in assay [4], 10%; in assay [5] it was 7.38%.

Turning to `O=C(NC1CCCC1)C1c2sc3ccccc3c2CC(=O)N1CCc1ccc(Cl)cc1` (stereo not drawn), the activity change, negative = inhibition in assay [1] was -2.69%; in assay [2], 7.39%; in assay [3] it was -1.91%; in assay [4], -2.29%; in assay [5] it was -2.14%.

For `COc1ncccc1-c1cc(-c2cn[nH]c2)c2cncn2c1`, the activity change, negative = inhibition in assay [1] is -17.9%; in assay [2] it was -2.94%; in assay [3], -6.5%; in assay [4] it was -14.5%; in assay [5], -13.4%.

In the case of `CCc1ccccc1NS(=O)(=O)c1cc2c(cc1Cl)n(C)c(=O)n2C`, the activity change, negative = inhibition in assay [1] amounted to 13.7%; in assay [2], 0.579%; in assay [3], 0.726%; in assay [4], 4.72%; in assay [5], 10.3%.

Consider `CCOc1ccc(CCNS(=O)(=O)c2ccc3[nH]c4c(c3c2)CCCC4)cc1OCC`, for which the activity change, negative = inhibition in assay [1] was -3.28%; in assay [2] it was -0.718%; in assay [3], -12.9%; in assay [4], -7.39%; in assay [5], -6.17%.

Regarding `COc1cccc(CNC(=O)C(C)n2ccc3cc(S(=O)(=O)N4CCCCC4)ccc32)c1OC` (stereo not drawn), the activity change, negative = inhibition is 3.19% in assay [1]; 0% in assay [2]; 6.55% in assay [3]; -1.98% in assay [4]; 2.96% in assay [5].

Turning to `CCc1ccccc1NC(=O)N1CCn2cccc2C1C` (stereo not drawn), the activity change, negative = inhibition in assay [1] was -3.81%; in assay [2], 4.75%; in assay [3], -3.11%; in assay [4] it was -8.72%; in assay [5] it was -2.88%.

For `COc1cccc(C(=O)NC2CCN(c3nnc4ccccn34)CC2)c1`, the activity change, negative = inhibition is -5.44% in assay [1]; -0.08% in assay [2]; 3.07% in assay [3]; -5.36% in assay [4]; 10.5% in assay [5].

With `OC[C@H]1O[C@@H](n2cnc3c2NC=NC[C@H]3O)C[C@@H]1O`, the activity change, negative = inhibition in assay [1] was 6.44%; in assay [2], 1.21%; in assay [3], 1%; in assay [4], -11.2%; in assay [5], -1.64%.

In the case of `C1=C(c2cc(-c3ccncc3)cn3cncc23)CCOC1`, the activity change, negative = inhibition in assay [1] is -37.6%; in assay [2], -20.2%; in assay [3] it was -20.4%; in assay [4] it was -30.8%; in assay [5], -46.9%.

`COc1ccccc1N1CCN(c2nc3c(S(=O)(=O)c4ccccc4)nnn3c3ccccc23)CC1`: the activity change, negative = inhibition in assay [1] worked out at 5.62%; in assay [2] it was 0%; in assay [3] it was 1.91%; in assay [4], 6.45%; in assay [5], 2.35%.

For the compound `O=C(CCc1nnc2n(Cc3ccccc3)c(=O)c3ccccc3n12)NCc1ccccc1`, the activity change, negative = inhibition in assay [1] was -7.78%; in assay [2] it was 5.02%; in assay [3] it was 2.66%; in assay [4], 6.13%; in assay [5] it was -0.807%.

As to `COc1ccc(OC)c(CN2C(=O)c3nc4ccccc4n3CC2(C)C(=O)NCc2ccccc2)c1` (stereo not drawn), the activity change, negative = inhibition in assay [1] is 1.18%; in assay [2], 0%; in assay [3], 3.61%; in assay [4] it was 7.09%; in assay [5], -0.832%.
